Read counts are not given, so values of variants with three or more changes are uncertain.
B1: LINE1-full (parent)
chain: UACGUAGGUGGUUUUCCCCUGAUAGUGCUAAGGGGGCCUGGAAGUUUGGACUGGGCAGAGCUCAACACAGCGUGGCAAAGUGGCUGUGGCUAGACUGCCUCUCUGGAUUCCUCGUCACUCAGCAGGGCAUCUCUGAGAGAAAUGCC

Variants of: B1
Test: self-cleavage, relative activity (ratio to wild type); higher = more cleavage; in vitro, sequencing; the parent is a self-cleaving ribozyme

Variant	self-cleavage
A50G A57C U104A	0
A50G U130C A141G	1.49
U52A U85A U104A	0.1
U52A U102C A142U	0.09
G48U U96G U100C	0.63
U52A C98U A107G	0.12
A50G U91A G105A	0.65
U52A A129G A140U	1.07
U52A U62A A64G A69G A94U U143C	0
U52A G54A C103A U130C	0.34
G49A A67G U100A	0.15
A50C C99G U100C	1.05
U52A U81C U130C	1.24
C51U A65G A77G	0
A50U A79U A129G U143C	1.87
U52A C113A U132C	0.88
A50U A57G U132C	0.1
A50U A69G U119C	0
G49A C63U A64G U109A	0.05
A50G A59G A136G	0.16
A50G U102A A124U U130A	1.11
A50G C99U U115C	0.84
A50G A121G U143A	1.37
A50G G125C U134G	1.68

Variant	self-cleavage
G49U A79G A121U U130C	1.51
A50G G53A A77G A140U	1.39
A50G U134C A142G	0.96
A50U A57U U81C U115G	0
G49U U91C U112C	0.25
A50G U100C U112C	0.77
A50U A117C U143C	2.18
U52A U100C A124U	1.88
A50U U104G U119A	0.36
A50G U52A U85A U104C U119C	0
U52A A59G C113U	0.06
U52A A78G U108C G137U	2.04
A50G U91C U100C G105A	0.38
A50G A59U C68A A77C G114A A129G	0.01
U52A A79G U109C A136G	1.58
A50G A117C A129G	1.13
U52A U96C A136U	0.46
U52A U96C U109C	0.16
U52A U73C A77U U108C	1.45
A50G C98A A140G	0.05
U52A U62C C118A U130C U134C	0.06
A50G A117U U119A	1.2
A50U A57U U143C	0.1
A50U U112C A129G	0.45

Variant	self-cleavage
U52A U85A U100C	0.19
U52A A77U U104C	0.92
A50U A77U A94G	0.17
G48U A136G A142C	2.1
A50G U87C U91A	0.24
A50U U96A U115C A136G	0.04
G49U A69G A121G A142G	0.33
U52A A57G A94G	0
A50C A57U U96C	0
A50U A67G U104C	0.11
A50U A107U U132C	1.44
U52A A92G A138G	0
A50G A107G U132A	0.74
A50G A94U U100A	0.08
A50U U115C A124G	0.84
U52A A64G U108C G114C A121G	0.41
U52A A78G A124U A141G	1.86
A50C A67G U73A	1.19
U52A A64G U115C	0.96
A50G A59G U73A	0.11
U52A A121G U132A	2.78
A50G A64U A121G	0.92
A50G U81A U87C	0
A50G U100C C133U	2.24

Variant	self-cleavage
U52A A94G U109C	0.27
A50G U85A U100C	0.14
U52A A57U A59U A67U A124G	0.07
A50G A78G U87C	0.14
A50G U102C U130C	2.3
A50G U91A U100C A129U	0.66
U52A U100A U108C	1.03
U52A A67U U119C A138G	0.61
U52A A65G A136G	0.04
A50G U87A A121C A140G	0.08
A50G C68U U119A	0.04
U52A C84U U130C	0.11
U52A U102A U134C	0.68
G49A A64G U100A	0.17
G49A G74A A78U U100A U104C	1.12
A50G U81C U96G A121U	0
G49A A77G A78G A94C	0
C51U U100C A124G	1.6
A50U A78U C123U	1.45
C51A G55C A57G U73C	0
A50G U73A U96C A138U A140G	0.34
A50U A57C A64G C95U G122U U134A	0.01
A50G U73C U134C	1.41
A50G U62C U73A A140G	0

Variant	self-cleavage
U52A U87C U96C A107G	0
A50U A57U U100G U102A U109C G126A	0
G48U G93U A140U A142G	0.03
U52A C71A U104C	1.38
G49U A50G A64C U115C	0
A50U U62G A138G	0.06
A50G C84U U85C	0.09
A50G A69U A79G A141G	0.07
A50U A65U A69G A94G	0.11
A50G A64G U73A	0.64
A50G A78U U87C U112A	0.34
U52A G54C U132C	0.55
A50U U102A U134C	1.24
A50G G75U U85C	0.05
A50G G58A U134C	0.08
A50G A77G U130A U134A	1.66
A50C G74C A140G	1.24
G49A A64U C84U U87A	0.04
A50G U102C A138U	0
A50G U119A A138G	0.53
C51U A65G G114A	0
C51G A67G U87C	0.71
A50G U52A G89A	0.05
A50G G97A U143C	0.04

Variant	self-cleavage
A50U A77U U109C A141G	0.88
A50C U85A U112C A141G	0.03
U52A C84A U87G U132C	0.12
A50G C66U A94G A117G U130C	0
U52A U100C U115A	2.35
G49U U102C U132C A138U	1.33
A50G A129G G137U	0.82
A50G G83A A136U	0.11
A50U A77U U134C	0.71
A50G U108A A121C	1.19
G49A A65G U81G	0.02
G49U U87C U108C	0
C51U U96C C101U	0.07
U52A G93A A107G A121G	0.02
A50U U134A A140G	0.16
A50U G86A U96G A138G	0.08
U52A U100C A117G	2.07
A50G A121G A140G	0.34
U52A A57U U81C	0.1
A50G A67G U96C	0
U52A A69U U85C	0.36
A50U U62A U73C A77G G97A	0.03
G48U A64G A141G	0.19
A50U U85C A138G	0.1

Variant	self-cleavage
A50G C51A A69U A79G A140G	0.04
U52A U73A U85A	0.08
C51A A69G U100C	0.38
A50G A78G U132A	0.58
A50G U62A U73A	0.01
U52A A59G A64U A77G U87C	0.17
U52A A69G U73C U134C	1.53
U52A A77G U85C	0.44
A50U A92G U134C	1.53
A50U A64U A67G A94U U104C	0.08
G49A A94G A136G	0.13
C51U A65G G83C	0
U52A A59G A64U A77G	0.14
A50G U134A U143C	0.4
G48U C103U A124U A136U	0.92
A50G A78G U119C	0.57
U52A A77G A78G	1.38
A50G U102A A121G	0.98
U52A A67G U81C	0.1
U52A A65G C103G	0.03
A50G A57U G83A U96A A107G U119C	0
A50G U87C A140G	0.57
A50U U81C U109C	0.86

Reference: the RNAGym collection of RNA variant scans (doi:10.7554/elife.90254)
